# Data as given in the RNAGym collection of RNA variant scans (doi:10.7554/elife.90254).
# Read counts are not given, so values of variants with three or more changes are uncertain.
# B1: LINE1-mini (parent)
# chain: GGCAGAGCUCAACACAGCGUGGCAAAGUGGCUGUGGCUAGACUGCC
# Variants of: B1
# Test: self-cleavage, relative activity (ratio to wild type); higher = more cleavage; in vitro, sequencing; the parent is a self-cleaving ribozyme
row,Variant,self-cleavage
1,A14C G17U A26U G33U U43A,0.06
2,C13A G36U A41C,0
3,C31G G35U G40U C45A,0.1
4,G17A G33C C37G,0.02
5,G22A C37A G40A,0.03
6,C3G A4U A14U C23U G29U C31G G40C,0.03
7,A6G U20A G36U C37G A39G,0.01
8,G1A A4G G5U U20C A24C G27U C31G,0.02
9,A12G C23G A24U A41C,0.02
10,C10U C23A C46A,0.66
11,C8G G21A A26G G40U,0.17
12,G2U G19C A25C C37U,0.01
13,C10A A12U C18G U20G,0
14,G1C C8U C10G C13A G44C,0.01
15,G2A G19A G33U C42A,0.1
16,G22U C23A C46A,0.84
17,G7A C13A G19U G30A,0.65
18,G5C A12C C15G,0
19,C10A A11G G29C G44U,0.01
20,A6G C8A A11C G29A G40C,0.01
21,C18U G27U G29A U38C C45G,0.07
22,G1C C3U A25G U28C C37U,0.03
23,G17C C42U C45U,0.08
24,U9A C23G C42A U43C,0.08

row,Variant,self-cleavage
1,C8U C18U U28C,0.17
2,G5U A11U U43C C46G,0.03
3,C3U G17U U28G U32C G44A,0.75
4,A6C C13U G19U U38G,0
5,G19U U28A G33A,0.26
6,G5C G7C A12C,0.03
7,G2U A26G U34C C37G,0.04
8,G33U A39G A41U,0.05
9,G2A G7U G21U G40U,0.88
10,G33U A41G C46U,0.02
11,C13A G17A C23U A41G,0.04
12,C13G A14C A16G,0.02
13,C8U A12C C23A,0.02
14,C8A C10A C13A U20C A24C A39G A41G,0.01
15,C3G C10A C31U,0.03
16,G2U C18U A39U,0.04
17,C8U G29C G40A,0.07
18,C3G G21U C37U C45G,0.13
19,G5U G7U C18A G40C,0.08
20,G2A G35U C37U A41G G44A,0.06
21,C10A C15U C31A C37A,0.01
22,G2U A12U G36U,0.24
23,G7U C8A A12C C23U,0.06
24,G1C C13G A16U A39C A41C C42U,0.01

row,Variant,self-cleavage
1,C15A G27A U32G C45U,0.05
2,G2A A14U A16G A26G C45A,0.26
3,C3U G5A A24U U32C U34G A39U,0.03
4,C13U A14U U20G U34G,0.03
5,A4G G27C G29U G33C,0.04
6,C18G G22C G33C G35U G44U,0.02
7,G17C C18U C31G,0.17
8,A6U G7U G22A C23U,0.05
9,C3U U9G G19U U20C,0.11
10,A11C G17A G19A G35A G36U C45A,0.02
11,G17A A24U A25C,0.08
12,G2C A4G A14G U34G G44U,0.03
13,A6C A12G C18A G40C,0.08
14,C15G A26U G29U,0.07
15,G29A U34C C46A,0.21
16,G22A A25U G36U,0.02
17,G1A G19U C42A,0.07
18,A12U C37A C45U,0.37
19,A4U U9C C10A G21U,0.03
20,A4U A12G C46A,0.01
21,G2U A6G U9A U28A,0.03
22,G29A G30A C45A,0.3
23,G33A G40C U43C,0.03
24,G30C A41G G44U C45A,0.06

row,Variant,self-cleavage
1,G19A U20G C23A,0.81
2,G1A A16C U32A G33A,0.05
3,C3U U9G A11U A41U,0.02
4,C13A A14U A25C G40U,0.02
5,G17C U28G G29C,0.31
6,G2A A12G C37G U38G A41C,0.02
7,G19U G35A G40A,0.04
8,G30A G33A G36C C37G A41G,0.02
9,G2C C10G C13A C18A,0.01
10,C13G U43G C45A,0.18
11,C18A A24U G33U G36C,0.02
12,U20C G33U A39C,0.09
13,U9A G36A C45A,0.16
14,A11G C23A A41G,0.02
15,A4U C23G C45A,0.04
16,G2U C10U C42U,0.03
17,A11U G22C G33C,0.02
18,C8A C18U G27U,0.28
19,C8U A16U G19C G40C U43C,0.02
20,A6U C37A U43A,0.05
21,A6G G21U G29U,0
22,A4G A16U C31A,0.03
23,C13A U28C G30C G36U C46U,0.13
24,A11U A14C A26C U32C U38A,0.01

row,Variant,self-cleavage
1,A4U A14G A26U G36A U43C,0.03
2,G1A G19C C31G G40A,0.12
3,G5A A6U C18G,0.1
4,U9A A11U G30A U43A,0.02
5,G2A A25C G40A C45U,0.13
6,C3U A6U C31A,0.16
7,G2A A11U A39C,0.1
8,G40C G44C C45G C46A,0
9,G7U C13G G22A U32C,0.09
10,C23A C31U U34G C42U,0.3
11,A16G C18A G21U C46G,0.17
12,G17U C18A G22A C31G,0.4
13,A12U G17U U34C C42U,0.05
14,G5U U9A G21U A25C C42U,0.08
15,G33U G36U C37A U38A,0.06
16,C3U A6G C18U U34A,0.06
17,A24G G27C U32G,0.12
18,C8A A11G G30A,0.01
19,A14G G22U G27C,0.31
20,C10A A12U C15U C23A A41G C46A,0
21,G19U G40U C46G,0.46
22,G5C A11U G19U U28C,0.02
23,G17A G21C A26U U38A,0.06
24,C3A C8A U9G G21U C46A,0.08

row,Variant,self-cleavage
1,G5A A6G G17A C18U C46G,0.04
2,G21U A41U C42G G44A,0.12
3,C3U A4C A26C,0.13
4,C13A G17A C23U G27A,0.06
5,G1A A4U A11G U20G G29C,0.04
6,A4C C23U G36U,0.08
7,A11U C23U A24C G29U U32A,0.04
8,C18U G22C G29A,2.29
9,G2A G21U G36C,0.14
10,A12C G21C G27C C37G U43C,0.01
11,G7A U28C G36C,0.06
12,U9A C15G G21A G40U U43G,0.51
13,G21U G27C G33A,0.09
14,A25U G35A G40A,0.05
15,A6U U20A G30A,0.13
16,C10A C13A C18A G19C G30U C31G,0.02
17,G30C G33U A41U,0.2
18,G7A C18U U43A,0.12
19,G7A G22U G27U,0.07
20,C3A C15A G17C U20A A39U,0.04
21,G5C C8U U9G A12G,0.03
22,G7U C15U C46A,0.06
23,G2U G21A U43A,0.06
24,G1U G22C U43A,0.01

row,Variant,self-cleavage
1,A6G U9A G17U A26U G35A G36C,0.01
2,A25C A26C U28C U34A G35A G36U U43A,0.01
3,C8G G17U G40U,0.01
4,C15U G27A G33A C45U,0.59
5,C3U A6U U38G,0
6,C10A G27A G30U G36U,0
7,G5C G17U A41G,0.11
8,C10A G30U A39C,0.09
9,G2U G5A C8G G35A,0.03
10,G7A C10U G27C G29A C37G,0.04
11,A11U A12U G33U,0.03
12,G7U C8G U38C,0.09
13,G5C U9A U20A C23G A24G,0.03
14,A24U C42A U43A,0.09
15,A4G A12G C13U G17A,0.01
16,G1C G7C A12G G19C,0
17,C3G C13A C23A C46U,0.11
18,A6U C10A A16C,0.01
19,C10G G40U C45A,0
20,G27C G35A G36C,1.08
21,G5U C18U G19U U32G G36U A41C,0.02
22,G30A G40U U43C,0.02
23,C10U A16G U20A,0.06
